Experimental data published in PubChem BioAssay AID1508624 (National Center for Advancing Translational Sciences (NCATS), 2021).
Screen size: about 48,000 compounds; about 120 (0.25%) were called active. Not shown: some 4% with an inconclusive outcome. The call rests on the fitted dose curve; in most records, active means well fitted activation curve with a large enough effect; inconclusive means small, poorly fitted or top-dose-only effect, or another doubt; inactive means no such curve, though single readings can be large or run the other way. This is one part of the list.

Experiment: Primary qHTS for Identification of Small Molecule Activators of Huntingtin-Antisense Promoter Activity; further: nearly all actives have a fitted effect of over 55% in size
Settings: HEK293 HTT-AS promoter firefly luciferase reporter, 24 h; series mostly up to 57.5 µM; activity change, positive = activation: at the top concentration
Outline: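 Luminescence was read after Dual-Glo reagent and a 10 min room-temperature incubation. Values were normalized to vehicle (0% activity) and zero RLU (-100% activity). Reporter HEK293 cells had been exposed to compounds (up to 57.5 uM final) for 24 h.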

Row | Compound | activity change, positive = activation
1 | COc1ccc(CNC(=O)Cn2c(=O)oc3cc(S(=O)(=O)N4CCC(C)CC4)ccc32)cc1 | inactive: -2.36%
2 | COc1cccc(CNC(=O)CN2C(=O)CSc3c2c(C)nn3-c2ccccc2)c1OC | inactive: -21.7%
3 | Cc1cccc(C)c1NC(=O)c1nc(S(C)(=O)=O)ncc1N(Cc1ccc(F)cc1)Cc1ccco1 | inactive: -32.5%
4 | CCOC(=O)c1cnc2c(C)cc(C)cc2c1NCCc1ccc(OC)c(OC)c1 | inactive: -4.53%
5 | Cc1cc(-c2ccc(C)c(S(=O)(=O)Nc3ccccc3C(F)(F)F)c2)on1 | inactive: -35.8%
6 | COc1ccc(C(=O)N(Cc2ccc(N(C)C)cc2)Cc2ccco2)cc1Cl | inactive: -34.9%
7 | Cc1ccc2c(CC(=O)NCc3ccccc3)coc2c1C | inactive: -16.6%
8 | O=c1c2sc3ccccc3c2n(Cc2ccccc2Cl)c(=O)n1Cc1ccccc1 | inactive: -5%
9 | Cc1ccc(C)n1-c1c(C(=O)NCC(C)c2ccccc2)sc2ncccc12 (stereo not given) | inactive: -21.3%
10 | COc1cc(NC(=O)N2CCc3c(sc4c3CCCC4)C2c2ccccc2)cc(OC)c1OC (stereo not given) | inactive: -49.6%
11 | CCOc1ccc(CNC(=O)CSc2nnc(C)c3c(C)n(-c4ccc(Cl)cc4)nc23)cc1 | inactive: -18.5%
12 | O=C(CN1C(=O)COc2ccc(S(=O)(=O)NC3CCCC3)cc21)NCc1ccc(Cl)cc1 | inactive: -18.4%
13 | CCN(CC)CCSc1c(C(C)C)cnc2c1c(=O)n(C)c(=O)n2C | inactive: -1.55%
14 | COc1ccc(OC)c2sc(N3CCN(C(=O)c4ccco4)CC3)nc12 | inactive: -16.5%
15 | CCOC(=O)N1CCN([N+]([O-])=NOc2ccc([N+](=O)[O-])cc2[N+](=O)[O-])CC1 | inactive: -20.1%
16 | COc1ccc(-c2cc(C(F)(F)F)nc(SCCC(=O)Nc3ccc(OC)c(OC)c3)n2)cc1 | inactive: -27.6%
17 | CCCCc1nnc(SCc2cc(=O)c3cc(F)ccc3[nH]2)n1C | inactive: -28.9%
18 | CCN(CC)C(=O)c1c(NC(=O)c2cccc(C)c2)sc2c1CCC(C)C2 (stereo not given) | inactive: -1.75%
19 | CCN1CCC(N(Cc2ccc3c(c2)OCO3)C(=O)Nc2cc(F)ccc2F)CC1 | inactive: -5.93%
20 | Cc1ccc(NC(=O)c2sc3nc(-c4cccs4)ccc3c2N)cc1F | inactive: 2.69%
21 | CC(C)(C)NC(=O)C1CCN(c2nc3ccccc3nc2C(F)(F)F)CC1 | inactive: -4.84%
22 | COc1ccc(C(=O)NCCn2cc(SCc3c(F)cccc3Cl)c3ccccc32)cc1 | inactive: -55%
23 | Cc1ccc(-n2ncc3c(NC4CCCCCC4)ncnc32)cc1 | inactive: -4.58%
24 | O=c1[nH]c2cc(Br)ccc2n2cccc12 | inactive: 9.77%

Row | Compound | activity change, positive = activation
25 | O=C(O)c1ccccc1Nc1cc(Cl)ccc1C(=O)O | inactive: -6.48% [at 25.1 µM, percent change from vehicle, -100% = no light]
26 | O=C(c1cnc(N2CCOCC2)c2ccccc12)N1CCN(c2ccccc2)CC1 | inactive: -25.9%
27 | Cn1nnnc1SCCCNCc1ccccc1OCc1ccc(Cl)cc1 | inactive: -21%
28 | NS(=O)(=O)c1cc2c(cc1Cl)NC(CSCc1ccccc1)=NS2(=O)=O | inactive: -9.9%
29 | O=C(NCc1ccccc1Cl)c1ccc(CS(=O)(=O)c2ccc(Br)cc2)o1 | inactive: -34.2%
30 | CCN(CC)S(=O)(=O)c1ccc2c(c1)N(CC(=O)N1CCN(c3cccc(C)c3C)CC1)C(=O)CO2 | inactive: -21.8%
31 | Cc1cc(C)c(NC(=O)Cn2c(=O)n(CCC(=O)N3CCc4ccccc4C3)c(=O)c3ccccc32)c(C)c1 | inactive: -17.3%
32 | Clc1ccc(-n2ncc3c(NC4CCCC4)ncnc32)cc1 | inactive: -40.3%
33 | Cc1c(CNC2CCCCC2)c(C(=O)O)c(C)n1Cc1ccc(Cl)cc1 | inactive: -16.5%
34 | Cc1ccc(Cn2c3ccccc3c3cnn(CC(=O)Nc4cc(Cl)ccc4C)c(=O)c32)cc1 | inactive: -4.38%
35 | O=C(CSc1n[nH]c(-c2ccccc2Cl)n1)NCCc1ccccc1 | inactive: -15%
36 | COc1ccc(N2CCN(C(=O)c3cccn3-c3nnc(N4CCCC4)s3)CC2)cc1 | inactive: -5.77%
37 | CCc1nn(CCCC(=O)NCc2ccc(OC(C)C)cc2)c(=O)c2cc3occc3n12 | inactive: -5.96%
38 | CCOc1cc(CNS(=O)(=O)c2ccc3c(c2)C(C)(C)C(=O)N3)cc(OCC)c1OCC | inactive: -10.6%
39 | CC(NC(=O)Cn1ccc2cc(S(=O)(=O)N3CCCCCC3)ccc21)c1ccccc1 (stereo not given) | inactive: -32.5%
40 | COc1ccc(C)cc1NC(=O)Nc1nnc(N2CCCCC2)s1 | inactive: 23.1%
41 | CCOC(=O)C1CCCN(c2nc3c(S(=O)(=O)c4ccc(CC)cc4)nnn3c3ccc(Cl)cc23)C1 (stereo not given) | inactive: 14.2%
42 | Cc1c(C(=O)N2CCC(C)CC2)c(S(=O)(=O)N(Cc2ccccc2)C(C)(C)C)c(C)n1C | inactive: -24.8%
43 | CN1CCN(C(=O)C(=O)Nc2c3c(nn2-c2ccc(Cl)cc2)CSC3)CC1 | inactive: -11.4%
44 | CCOCCCn1c(=N)c(C(=O)NCc2cccnc2)cc2c(=O)n3ccccc3nc21 | inactive: -2.33%
45 | Cc1ccc(N2C(=O)CCSC23C(=O)N(Cc2ccccc2)c2ccccc23)cc1 (stereo not given) | inactive: -8.71%
46 | Cn1c(=O)c(C(=O)O)nn(-c2ccccc2)c1=O | inactive: -8.2%
47 | Cc1ccc(NC(=O)Nc2nnc(N3CCCC3)s2)cc1C | inactive: 21.7%
48 | COC(=O)c1ccc(C(=O)OC)c(NC(=O)CN(c2ccccc2)S(=O)(=O)N(C)C)c1 | inactive: -36.8%

Row | Compound | activity change, positive = activation
49 | COc1cccc(CNC(=O)CSC2=Nc3ccccc3N=C(c3ccc(F)cc3)C2)c1 | inactive: -37.1%
50 | CCOc1ccccc1CNC(=O)C1CCCN(c2nnc(C)c3c(C)n(-c4ccccc4)nc23)C1 (stereo not given) | inactive: -36.9%
51 | COCCCNC(=O)CN1C(=O)c2cccnc2Sc2ccccc21 | inactive: -4.36%
52 | O=C(Nc1cccc(C(F)(F)F)c1)Nc1nnc(N2CCCCCC2)s1 | inactive: 0.64%
53 | CC(=O)c1cccc(NC(=O)CN2C(=O)CCc3cc(S(=O)(=O)N4CCCCC4)ccc32)c1 | inactive: -14.1%
54 | COc1ccccc1N1CCN(C(=O)c2cc(-c3ccc(C)c(F)c3)on2)CC1 | inactive: -15.3%
55 | Cc1ccc(NC(=O)CSc2nc(-c3ccco3)cc(C(F)(F)F)n2)c(C)c1 | inactive: -23.5%
56 | COc1cccc2cc(C(=O)Nc3ccc(CC(=O)O)cc3)c(=O)oc12 | inactive: -90.3%
57 | CCCCN1CC(c2nc3ccccc3n2CCCCOc2cc(C)cc(C)c2)CC1=O (stereo not given) | inactive: -46%
58 | CCOc1ccc(S(=O)(=O)N2Cc3ccccc3CC2C(=O)Nc2ccc(NC(C)=O)cc2)cc1 (stereo not given) | inactive: -18.5%
59 | CCN(CC)CCNC(=O)C(=O)Nc1c2c(nn1-c1ccc(F)cc1)CSC2 | inactive: -12.9%
60 | CCN(C(=O)CCc1nc(-c2ccc(C)cc2)no1)c1cccc(C(F)(F)F)c1 | inactive: -25.2%
61 | CCc1ccc(NC(=O)CSc2nnc3[nH]c(=O)cc(-c4ccccc4)n23)cc1 | inactive: 34.1%
62 | CCOC(=O)c1c(C)[nH]c(CCC(=O)Nc2ccccc2C(F)(F)F)c1C | inactive: -16%
63 | O=C(CCS(=O)(=O)c1cc2c(cc1Cl)NC(=O)CO2)NCCc1ccccc1 | inactive: -7.15%
64 | COc1ccc(C(=O)Nc2ccc(S(=O)(=O)Nc3cc(C)nc(C)n3)cc2)cc1 | inactive: -3.09%
65 | CCCS(=O)(=O)N1CC(=O)N(c2cccc(F)c2)C(C)(C(=O)NC2CCCCCC2)C1 (stereo not given) | inactive: -2.64%
66 | COc1cc(CNc2ccc3[nH]c(=O)[nH]c3c2)ccc1OCc1ccc(F)cc1Cl | inactive: -1.51%
67 | COc1ccc(CN2CCc3c(c(=O)n4ncc(C(=O)N5CCN(c6ccccc6F)CC5)c4n3C)C2)cc1 | inactive: -24.5%
68 | COC(=O)c1ccc2c(=O)n3nc(Nc4ccc(F)cc4F)sc3nc2c1 | inactive: 7.49%
69 | CS(=O)(=O)N(Cc1ccccc1)c1ccc(C(=O)Nc2cccc(Cl)c2)cc1 | inactive: -47.8%
70 | COc1ccc(CNC(=O)c2ccc3c(O)c(S(=O)(=O)c4ccccc4)c(=O)[nH]c3c2)cc1 | inactive: -9.15%
71 | Cc1cc(NS(=O)(=O)c2ccc(N)cc2)no1 | inactive
72 | Cc1cccc(N2CCN(C(=O)c3nn(C)c4c3CS(=O)(=O)c3ccccc3-4)CC2)c1C | inactive: -26.6%

Row | Compound | activity change, positive = activation
73 | CCCCC1CCC(C(=O)N2CC(=O)Nc3ccc(C)cc3C2c2ccc(F)cc2)CC1 (stereo not given) | inactive: -25.2%
74 | COc1ccc(Cn2ccc3nc(C)c(C(=O)N4CCN(c5cccc(OC)c5)CC4)cc3c2=O)cc1 | inactive: -22%
75 | COc1ccc(NC(=O)c2c(NC(=O)C(F)(F)F)sc3c2CCCCC3)cc1 | inactive: -10.3%
76 | COc1ccc(NC(=O)c2nc(S(C)(=O)=O)ncc2N(Cc2ccc(C)cc2)Cc2ccco2)cc1Cl | inactive: -15%
77 | COc1cccc(CNC(=O)c2cc(-c3ccc(Cl)s3)nc3ccccc23)c1 | inactive: -7.83%
78 | CCCCc1cc(=O)oc2cc(C)c3c(C(C)(C)C)coc3c12 | inactive: -23.7%
79 | COc1ccc(C)cc1NC(=O)N1CCN(S(=O)(=O)c2ccc3c(ccn3C)c2)CC1 | inactive: -21%
80 | Cc1ncc(CO)c2c1Oc1nc(-c3ccc(Cl)cc3)nc(SCC(=O)N3CCCCC3)c1C2 | inactive: -12.4%
81 | Cc1cccc(CSc2nc3c(sc4ccccc43)c(=O)n2CCC(=O)NC(C)C)c1 | inactive: -1.78%
82 | Cc1cccc(NC(=O)CSc2nc3ccc(NC(=O)COc4ccccc4C)cc3s2)c1 | inactive: -14.6%
83 | O=C(NCc1ccc(Cl)cc1)C1CCN(c2nn3cc(-c4ccc(F)cc4)nc3s2)CC1 | inactive: 11.4%
84 | Cc1c(C(=O)OCCOc2ccccc2)[nH]c2c1C(=O)CC(c1ccc(C(C)(C)C)cc1)C2 (stereo not given) | inactive: -20.2%
85 | CCn1c2c(c(=O)n3ncc(C(=O)Nc4cc(Cl)ccc4OC)c13)CN(Cc1ccc(OC)cc1)CC2 | inactive: -18.7%
86 | CCCNC(=O)CCC(=O)N1Cc2cccc(OC)c2Oc2ncccc21 | inactive: -6.38%
87 | CC1CN(C(=O)NCc2ccccc2)c2cc(Cl)ccc2O1 (stereo not given) | inactive: -8.98%
88 | O=C(Cn1cc(C(=O)C(F)(F)F)c2ccccc21)N1CCCCCC1 | inactive: -12.7%
89 | CC1(C)N=C(SCc2ccc(F)cc2)c2ccccc2N1 | inactive: 6.48% [at 11.5 µM, percent change from vehicle, -100% = no light]
90 | O=C(COc1ccc2ccccc2c1)NC1CC(=O)N(c2ccc(F)cc2)C1 (stereo not given) | inactive: -7.76%
91 | Cc1ccccc1CN1c2ccccc2-c2nc(SCC(=O)c3ccccc3)ncc2S1(=O)=O | inactive: 25.9%
92 | CC1CCCCN1CCCNC(=O)c1cc(Sc2cccc(Cl)c2)nc2ccccc12 (stereo not given) | inactive: -12.8%
93 | CCOc1ccccc1NC1(c2ccccc2)C(=O)c2ccccc2C1=O | inactive: -19.3%
94 | Cc1c(CNC2CCCCC2)c(C(=O)O)c(C)n1Cc1ccccc1F | inactive: -18.2%
95 | Cc1ccccc1OCc1nc2c3cnn(-c4cccc(F)c4)c3ncn2n1 | inactive: -2.9%
